# Several values for one entry are separate records, joined by “and”; a condition that tells them apart may be missing. Identical values can stand only once. The inconclusive results got no clear call from the source; some entries with a clear call stand among them for comparison. For some of these results: A potency beside an inconclusive call is a rough fit, not a confirmed value. Activity calls are given as the source filed them. Unless noted, calls follow the shape of the dose curve; as a rule, active = well fitted curve in the direction sought with a large enough effect; inconclusive = small, poorly fitted or top-dose-only effect, or another doubt; inactive = no such curve, though single readings can be large; an effect the other way counts as inactive or inconclusive.
# What was measured:
# [1] = MultiTox-Fluor Cytotoxicity Assay - LYMP1-002 - Dead Cells (AID 960);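 also: 0% = DMSO and 100% = tetraoctylammonium bromide; nearly all actives have a fitted effect of over 60% in size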
# Method in brief: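 Dead-cell fluorescence (Ex/Em 485/520) after 16 h compound exposure at 37 C of LYMP1-002 lymphoblastoid cells in complete medium; AC50 by Hill equation, with data scaled between DMSO and 15 uM tetraoctylammonium bromide.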
# [2] = Cell Viability - LYMP1-003 - Assay at 24 hr (AID 963);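 also: plate controls were DMSO only for no effect and tetraoctylammonium bromide positive control for full effect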
# Method in brief: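 Concentration-response qHTS: ATP loss measured by CellTiter-Glo luminescence after 24 h compound exposure at 37 C. Cells were LYMP1-003 human lymphoblastoid, 2500 per well. AC50 derived via standard Hill equation modeling.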
# [3] = Cell Viability - LYMP2-017 (AID 972);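 also: cells exposed to compound for 24 hours at 37 °C; % is scaled to controls: 0 for no effect and ±100 for the full control effect; nearly all actives have a fitted effect of over 55% in size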
# Method in brief: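 CellTiter-Glo luminescence (cellular ATP, 30 min RT) measured cytotoxicity after 24 hr compound treatment at 37 C. Cells were a human lymphoblastoid line, LYMP2-017, plated at 2500/well and incubated 5 hr first; concentration-response fitted with Hill equation for AC50.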
# [4] = target: Calcium and integrin-binding protein 1 (Homo sapiens) (UniProt Q99828); experiment: Validation qHTS for Identification of Calcium Integrin Binding protein 1 (CIB1) Competitor (AID 1508618); also: % is scaled to controls: 0 for no effect and ±100 for the full control effect
# Method in brief: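 Fluorescence polarization with 1 uM CIB1-GST and 100 nM FITC-alphaIIb peptide in HEPES pH 7.4, NaCl, 5 mM CaCl2, Tween20. Compounds at up to 114 uM final, preincubated with protein 15 min; read after 15 min more at RT.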
# [5] = Counterscreen qHTS for small molecule stabilizers of the endoplasmic reticulum resident proteome: GLuc-NoTag assay (AID 1508627); also: potency is read from the fitted curve at half-maximal effect
# Method in brief: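 Counterscreen line: SH-SY5Y-GLuc-NoTag. Seed, 5 h; compound, 19 h; thapsigargin 100 nM, 4 h; 37C/5% CO2. Readout: secreted GLuc luminescence, coelenterazine 0.07x final, no lysis.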
# [6] = target: Rap guanine nucleotide exchange factor 3 (Homo sapiens) (UniProt O95398); experiment: Confirmatory qHTS for antagonist of cAMP-regulated guanine nucleotide exchange factor 3 (EPAC1) (AID 1645880);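 also: plate controls were DMSO only for no effect and full effect of the ATA control for full effect; nearly all actives have a fitted effect of over 55% in size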
# Method in brief: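 Released BODIPY-GDP fluoresces less than Rap1-bound BODIPY-GDP; the signal is followed at 480/540 nm at 5-min intervals over 30 min, after 5 min at room temperature. Reactions contain 100 nM EPAC1, 250 nM RAP1B-BODIPY-GDP and 50 uM GDP; results are normalized to ATA and DMSO.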
# [7] = Stat Signaling Pathway (AID 446; active = well fitted curve in either direction with a large enough effect, not every such curve was filed as active; inconclusive = small, poorly fitted or top-dose-only effect, or another doubt;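 also: ME-180 cervical cancer cells given 40 pM IL-6 alongside compound; SIE-controlled beta-lactamase reporter measured as 460/530 nm FRET emission ratio; top concentration of the series differs between compounds; % is scaled to controls: 0 for no effect and ±100 for the full control effect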); settings: ME-180 (cervical carcinoma) SIE beta-lactamase reporter, IL-6 stimulated, 5 h; at 17.2 µM (top of the series)
# Method in brief: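 Normalization used AC90 stimulation (300 pM IL-6) and AC90 inhibition (125 nM pan-JAK inhibitor at 40 pM IL-6). The underlying signal is SIE-driven beta-lactamase in ME-180 cells after 5 h IL-6 exposure with compound.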
# [8] = target: Cytochrome P450 2C9 (Homo sapiens) (UniProt P11712); experiment: qHTS Assay for Inhibitors and Substrates of Cytochrome P450 2C9 (AID 883); also: % is scaled to controls: 0 for no effect and ±100 for the full control effect; nearly all actives have a fitted effect of over 60% in size
# Method in brief: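 10nM CYP2C9 + 100uM Luciferin-H (=KM), 25mM KPO4; cpd 10 min 37C; NADPH regen, 60 min 37C; stop/detect with P450 Glo-Buffer 20 min; luminescence. Norm. to 57uM sulphaphenazole as full inhibition.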
# [9] = Validation of Assay for Modulators of Lamin A Splicing (AID 1459; active = well fitted curve in the direction sought with a large enough effect in the signal ratio; inconclusive = small, poorly fitted or top-dose-only effect, or effect the other way, or a change in a side signal; inactive = no such curve, though single readings can be large or run the other way; the % refers to the signal ratio;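 also: cells exposed to compound for two days before reading; 0% is about no effect; ratio rise marks activators and ratio drop marks inhibitors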); settings: Lamin A splicing dual RFP/GFP fluorescence reporter; Potency: ratio unless noted; ratio change, both ways: at 9.22 µM unless noted
# Method in brief: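 Dual-reporter HeLa S3 line (lamin A-EGFP minigene, DsRed2) treated with compounds 48 hrs, 0.5% DMSO final. Endpoint: EGFP/DsRed2 total intensity ratio from laser-scanning microplate cytometry.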
# [10] = Counterscreen for APE1 Inhibitors: Fluorescent Dye Displacement Validation Assay (AID 1707); settings: fluorescent dye displacement from DNA; also: potency is read from the fitted curve at half-maximal effect
# Method in brief: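 Reaction mixture of 250 nM Thiazole Orange and 50 nM double-stranded abasic-site DNA was dispensed, compounds were pin-transferred, and fluorescence was read at endpoint (480 nm ex, 540 nm em). Reduced fluorescence indicated dye displacement by DNA binding.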
# [11] = High Content Imaging Cell-Based qHTS for Inhibitors of the mTORC1 Signaling Pathway in MEF (Tsc2-/-, p53-/-) Cells (AID 2666);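 also: percent of cells scored positive for phospho-rpS6 Ser235/236 immunostaining by imaging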
# Method in brief: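 MEF Tsc2-/- p53-/- (empty vector), DMEM/10% FBS; cpd 24 h 37 °C; PFA fix, Alexa-488 p-rpS6 S235/236 Ab, Hoechst; imaged; rapamycin-defined inhibition; % positive cells/well.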
# [12] = target: D(1A) dopamine receptor (Homo sapiens) (UniProt P21728); experiment: HTS Assay for Allosteric Agonists of the Human D1 Dopamine Receptor: Primary Screen for Antagonists (AID 488983);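 also: calcium flux response to an EC80 dopamine challenge measured with no-wash dye; potency is read from the fitted curve at half-maximal effect; nearly all actives have a fitted effect of over 65% in size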
# Method in brief: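 Calcium-flux read-out in inducible HEK293 T-REx cells expressing D1, dye-loaded 30–90 min at room temperature. Kinetic reads: 180 s after compound (agonist phase), then 180 s after an EC80 dopamine challenge.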
# [13] = target: ATPase family AAA domain-containing protein 5 (Homo sapiens) (UniProt Q96QE3); experiment: Validation screen for small molecules that inhibit ELG1-dependent DNA repair in human embryonic kidney (HEK293T) cells expressing luciferase-tagged ELG1 (AID 493107); also: potency is read from the fitted curve at half-maximal effect; nearly all actives have a fitted effect of over 70% in size
# Method in brief: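 Luciferase read-out, ONE-Glo, 30 min at room temperature, follows 16 h co-exposure at 37 C of compound and the DNA-damaging agent 5-fluorouridine. Cells: HEK293T with ELG1-luciferase fusion, 2,000 per well, DMSO as vehicle.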
# [14] = target: Glutaminase kidney isoform, mitochondrial (Homo sapiens) (UniProt O94925); experiment: qHTS for Inhibitors of Glutaminase (GLS): LOPAC Validation (AID 624146);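 also: glutamate product detected by oxidase and peroxidase coupled Amplex red fluorescence gain; % is scaled to controls: 0 for no effect and ±100 for the full control effect; nearly all actives have a fitted effect of over 60% in size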
# Method in brief: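 Two-point fluorescence kinetic (t0, 30 min RT) for hKGA; glutamate detected via glutamate oxidase–HRP–Amplex Red. Substrate: 1 mM L-glutamine solution; buffer 45 mM KH2PO4, pH 8.2.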
# [15] = Validation qHTS assay for inhibitors of Activation Induced Cytidine Deaminase (AID): UDG Counterscreen signal (AID 1347427); also: potency is read from the fitted curve at half-maximal effect
# Method in brief: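 Fluorescence at 560 nm excitation, 665 nm emission reports UDG signal after 250 mM NaOH (2x) addition and 30 min. Enzymes (AID 1 uM, UDG 2 U/mL, at 4/3x) preincubated 10 min with compound, then 4 h with 4x 250 nM DJC20/DJC23 substrate at room temperature.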
# [16] = NCATS anti-infectives library activity on HEK293 viability as a counter-qHTS vs the C. elegans viability qHTS (AID 1745854); also: potency is read from the fitted curve at half-maximal effect
# Method in brief: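 Cytotoxicity counter-screen to a worm viability qHTS: CellTiter-Glo luminescence read 10 min after reagent addition. Compounds (final up to 41.7 uM, a 1:5 dilution series) incubated 24 hr at 37C with 1,500 HEK293 cells per well; digitonin control.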
# [17] = target: Voltage-gated inwardly rectifying potassium channel KCNH2 (Homo sapiens) (UniProt Q12809); experiment: qHTS Assay for Small Molecule Inhibitors of the Human hERG Channel Activity (AID 588834); settings: U2OS BacMam hERG, FluxOR thallium flux fluorescence;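 also: potency is read from the fitted curve at half-maximal effect; lower thallium flux fluorescence means stronger hERG block; nearly all actives have a fitted effect of over 50% in size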
# Method in brief: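 Homogeneous FluxOR thallium flux assay using hERG-expressing U2OS cells (BacMam). Compound treatment about 10 minutes preceded stimulation; reduced fluorescence taken as channel block.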
# [18] = qHTS of pediatric cancer cell lines to identify multiple opportunities for drug repurposing: Confirmatory screen for MG 63 (6-TG R) cells (AID 1347119); settings: MG-63 (6-TG resistant) osteosarcoma viability; activity change, negative = cytotoxicity: at 45.9 µM (top of the series); also: potency is read from the fitted curve at half-maximal effect; nearly all actives have a fitted effect of over 55% in size
# Method in brief: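 Viability after 48 h compound treatment at 37C, 500-1,000 cells/well, read as ATP luminescence with CellTiter-Glo. Primary screens used 11-point (MIPE, 0.78 nM-46 µM) or 8-point (NPC, 0.59 nM-46 µM) final concentrations; follow-up screens used 11-point dilutions.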
# [19] = test system: CP211; experiment: qHTS profiling for inhibitors of Plasmodium falciparum proliferation (AID 504749); also: potency is read from the fitted curve at half-maximal effect; nearly all actives have a fitted effect of over 60% in size; settings: P. falciparum in erythrocytes, SYBR Green DNA, 72 h; series mostly up to 28.7 µM
# Method in brief: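 Each compound contacts P. falciparum-infected red blood cells for 72 h at 37 C; lysis buffer (Tris, EDTA, saponin, Triton X, SYBR Green I) is added and fluorescence measured next morning; values normalized to controls.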
# Tags tell the direction and shape of the fitted curve.
# Chain of UniProt P11712 (P11712 whole entry, looked up): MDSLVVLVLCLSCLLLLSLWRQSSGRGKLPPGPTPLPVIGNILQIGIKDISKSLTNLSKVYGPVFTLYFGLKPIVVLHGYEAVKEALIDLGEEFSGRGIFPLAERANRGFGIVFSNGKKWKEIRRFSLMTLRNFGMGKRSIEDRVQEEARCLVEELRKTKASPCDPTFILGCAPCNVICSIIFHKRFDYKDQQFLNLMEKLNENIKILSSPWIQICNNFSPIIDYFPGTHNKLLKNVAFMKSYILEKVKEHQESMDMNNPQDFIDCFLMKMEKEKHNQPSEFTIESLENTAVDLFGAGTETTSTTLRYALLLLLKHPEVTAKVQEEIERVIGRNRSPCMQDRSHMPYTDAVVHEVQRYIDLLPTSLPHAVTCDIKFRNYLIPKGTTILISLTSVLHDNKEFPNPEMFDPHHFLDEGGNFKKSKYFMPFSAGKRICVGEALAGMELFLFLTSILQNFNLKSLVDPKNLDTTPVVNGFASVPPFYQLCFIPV
# Chain of UniProt Q99828 (Q99828 whole entry, looked up): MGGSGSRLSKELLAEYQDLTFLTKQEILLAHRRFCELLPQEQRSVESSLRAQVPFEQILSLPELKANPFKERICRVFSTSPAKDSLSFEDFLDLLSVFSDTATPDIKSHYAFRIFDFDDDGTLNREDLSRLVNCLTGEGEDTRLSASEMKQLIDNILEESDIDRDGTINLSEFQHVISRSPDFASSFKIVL
# Chain of UniProt Q12809 (Q12809 whole entry, looked up): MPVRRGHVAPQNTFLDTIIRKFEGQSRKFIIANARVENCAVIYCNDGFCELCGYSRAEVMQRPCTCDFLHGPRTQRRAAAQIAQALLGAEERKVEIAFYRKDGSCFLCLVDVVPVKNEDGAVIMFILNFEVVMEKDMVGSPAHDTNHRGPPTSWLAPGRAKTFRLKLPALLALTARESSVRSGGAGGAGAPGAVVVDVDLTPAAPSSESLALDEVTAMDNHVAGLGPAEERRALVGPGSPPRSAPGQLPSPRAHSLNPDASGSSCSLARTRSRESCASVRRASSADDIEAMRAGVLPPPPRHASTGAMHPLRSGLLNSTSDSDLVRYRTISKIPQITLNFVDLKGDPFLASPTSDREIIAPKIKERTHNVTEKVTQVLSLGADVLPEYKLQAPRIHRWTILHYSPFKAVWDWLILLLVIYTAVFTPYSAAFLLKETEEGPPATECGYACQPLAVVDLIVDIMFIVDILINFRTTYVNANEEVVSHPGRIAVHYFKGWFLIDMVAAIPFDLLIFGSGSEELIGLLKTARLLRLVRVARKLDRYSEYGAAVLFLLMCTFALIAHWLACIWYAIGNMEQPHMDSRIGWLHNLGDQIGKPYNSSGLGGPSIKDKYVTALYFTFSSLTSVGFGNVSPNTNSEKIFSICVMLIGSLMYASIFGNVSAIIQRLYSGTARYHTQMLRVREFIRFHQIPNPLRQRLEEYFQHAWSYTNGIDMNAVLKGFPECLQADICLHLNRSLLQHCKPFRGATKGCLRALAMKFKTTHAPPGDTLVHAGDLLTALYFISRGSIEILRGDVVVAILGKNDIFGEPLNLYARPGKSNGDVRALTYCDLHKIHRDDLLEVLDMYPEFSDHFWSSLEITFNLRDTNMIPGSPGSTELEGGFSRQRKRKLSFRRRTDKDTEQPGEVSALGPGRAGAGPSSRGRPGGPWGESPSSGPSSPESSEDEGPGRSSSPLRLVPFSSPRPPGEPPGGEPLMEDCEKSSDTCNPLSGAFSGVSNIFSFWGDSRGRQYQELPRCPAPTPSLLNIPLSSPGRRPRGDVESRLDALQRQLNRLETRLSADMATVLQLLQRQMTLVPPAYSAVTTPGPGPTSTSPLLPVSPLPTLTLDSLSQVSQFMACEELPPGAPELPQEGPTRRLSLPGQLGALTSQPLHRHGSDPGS
# Chain of UniProt O94925 (O94925 whole entry, looked up, canonical isoform): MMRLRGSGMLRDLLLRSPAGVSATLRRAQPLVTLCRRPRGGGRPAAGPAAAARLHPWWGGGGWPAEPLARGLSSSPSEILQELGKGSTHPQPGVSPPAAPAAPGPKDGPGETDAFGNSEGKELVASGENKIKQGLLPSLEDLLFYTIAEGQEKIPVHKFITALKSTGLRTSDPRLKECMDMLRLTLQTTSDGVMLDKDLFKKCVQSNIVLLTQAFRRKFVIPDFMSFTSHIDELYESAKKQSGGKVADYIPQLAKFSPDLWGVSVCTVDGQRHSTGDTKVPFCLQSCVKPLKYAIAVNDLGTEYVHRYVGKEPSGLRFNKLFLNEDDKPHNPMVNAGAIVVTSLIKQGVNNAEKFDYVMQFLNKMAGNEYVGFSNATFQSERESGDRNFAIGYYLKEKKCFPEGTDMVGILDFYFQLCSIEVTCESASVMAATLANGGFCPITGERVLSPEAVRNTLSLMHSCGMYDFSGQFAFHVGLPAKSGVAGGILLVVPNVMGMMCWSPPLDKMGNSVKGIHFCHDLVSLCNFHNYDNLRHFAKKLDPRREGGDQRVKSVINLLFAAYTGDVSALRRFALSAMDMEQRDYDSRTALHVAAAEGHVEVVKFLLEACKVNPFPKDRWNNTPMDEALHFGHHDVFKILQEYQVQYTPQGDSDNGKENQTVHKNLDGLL
# Chain of UniProt Q96QE3 (Q96QE3 whole entry, looked up, the tested form may be a part): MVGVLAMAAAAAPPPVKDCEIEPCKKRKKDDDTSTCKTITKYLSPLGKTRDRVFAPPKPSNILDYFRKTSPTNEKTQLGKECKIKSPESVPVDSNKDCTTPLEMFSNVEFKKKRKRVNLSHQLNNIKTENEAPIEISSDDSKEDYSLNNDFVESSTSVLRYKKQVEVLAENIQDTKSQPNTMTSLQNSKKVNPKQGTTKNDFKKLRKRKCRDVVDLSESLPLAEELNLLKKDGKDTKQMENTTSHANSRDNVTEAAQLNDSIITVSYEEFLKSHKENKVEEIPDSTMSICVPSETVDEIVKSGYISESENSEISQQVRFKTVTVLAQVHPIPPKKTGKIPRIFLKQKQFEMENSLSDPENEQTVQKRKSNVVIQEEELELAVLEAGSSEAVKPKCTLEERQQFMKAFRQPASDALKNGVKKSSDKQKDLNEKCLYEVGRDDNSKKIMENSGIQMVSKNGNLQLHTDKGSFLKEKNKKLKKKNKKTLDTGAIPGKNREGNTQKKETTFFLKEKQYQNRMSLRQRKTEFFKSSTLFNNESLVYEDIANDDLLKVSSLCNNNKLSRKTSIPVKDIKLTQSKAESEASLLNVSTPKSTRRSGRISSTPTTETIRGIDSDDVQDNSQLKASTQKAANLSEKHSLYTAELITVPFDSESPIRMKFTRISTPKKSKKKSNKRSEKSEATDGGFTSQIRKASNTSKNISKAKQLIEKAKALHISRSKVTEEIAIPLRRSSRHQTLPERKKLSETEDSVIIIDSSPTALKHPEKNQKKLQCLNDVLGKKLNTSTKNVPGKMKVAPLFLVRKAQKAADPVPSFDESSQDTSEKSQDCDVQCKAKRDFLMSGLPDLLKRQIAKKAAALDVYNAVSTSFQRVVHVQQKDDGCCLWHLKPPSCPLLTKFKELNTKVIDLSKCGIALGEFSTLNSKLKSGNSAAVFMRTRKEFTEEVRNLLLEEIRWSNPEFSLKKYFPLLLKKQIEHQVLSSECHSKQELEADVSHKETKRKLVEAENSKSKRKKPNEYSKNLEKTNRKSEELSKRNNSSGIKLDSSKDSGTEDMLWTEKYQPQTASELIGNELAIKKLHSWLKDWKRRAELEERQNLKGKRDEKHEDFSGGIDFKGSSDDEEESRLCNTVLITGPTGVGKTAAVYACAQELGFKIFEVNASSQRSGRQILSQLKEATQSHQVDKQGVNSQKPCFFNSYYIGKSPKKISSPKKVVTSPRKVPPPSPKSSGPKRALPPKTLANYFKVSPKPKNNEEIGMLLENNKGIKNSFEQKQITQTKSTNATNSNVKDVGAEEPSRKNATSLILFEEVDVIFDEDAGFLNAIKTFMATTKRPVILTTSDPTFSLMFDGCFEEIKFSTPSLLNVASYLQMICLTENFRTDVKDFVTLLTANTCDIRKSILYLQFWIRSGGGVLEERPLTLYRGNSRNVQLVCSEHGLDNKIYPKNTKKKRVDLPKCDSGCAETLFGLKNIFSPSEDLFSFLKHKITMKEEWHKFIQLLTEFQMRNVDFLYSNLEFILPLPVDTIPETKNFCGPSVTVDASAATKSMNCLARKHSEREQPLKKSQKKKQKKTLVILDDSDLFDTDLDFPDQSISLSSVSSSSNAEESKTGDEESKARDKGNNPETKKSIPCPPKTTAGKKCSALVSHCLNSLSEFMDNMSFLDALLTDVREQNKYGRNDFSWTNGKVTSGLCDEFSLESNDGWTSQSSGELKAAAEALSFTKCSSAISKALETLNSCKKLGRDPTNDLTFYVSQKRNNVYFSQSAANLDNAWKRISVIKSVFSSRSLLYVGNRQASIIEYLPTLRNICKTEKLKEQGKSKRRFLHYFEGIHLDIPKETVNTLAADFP
# Chain of UniProt P21728 (P21728 whole entry, looked up): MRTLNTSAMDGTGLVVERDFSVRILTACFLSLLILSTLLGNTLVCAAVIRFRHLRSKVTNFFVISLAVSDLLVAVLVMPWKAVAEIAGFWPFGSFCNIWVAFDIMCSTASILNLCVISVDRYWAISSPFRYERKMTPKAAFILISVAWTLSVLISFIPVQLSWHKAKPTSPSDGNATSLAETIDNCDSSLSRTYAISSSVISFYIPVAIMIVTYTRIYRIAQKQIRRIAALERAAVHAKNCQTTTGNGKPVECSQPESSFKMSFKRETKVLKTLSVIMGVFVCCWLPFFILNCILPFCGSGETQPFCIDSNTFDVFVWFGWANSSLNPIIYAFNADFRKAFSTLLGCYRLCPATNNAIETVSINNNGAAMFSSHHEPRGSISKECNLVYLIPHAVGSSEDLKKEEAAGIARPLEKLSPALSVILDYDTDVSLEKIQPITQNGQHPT
smiles,measurement,setting,value
Nc1ccn([C@H]2CC[C@@H](CO)O2)c(=O)n1,Potency,[1],inactive
same,Potency,[2],inactive
same,Potency,[3],inactive
CCN1CCC[C@H]1CNC(=O)c1cc(S(N)(=O)=O)ccc1OC,Potency,[4],inactive
CC1=C(C(=O)OC(C)C)C(c2cccc([N+](=O)[O-])c2)C(C(=O)OC2CN(C(c3ccccc3)c3ccccc3)C2)=C(N)N1 (centres undefined),Potency,[5],"inconclusive: 70.8 µM [inhibitor, single point]"
same,Potency,[6],inactive
O=C(CCCN1CC=C(n2c(=O)[nH]c3ccccc32)CC1)c1ccc(F)cc1,"activity, negative = inhibition",[7],inactive: -7.13% and inactive: -12.1%
same,Potency,[8],inactive
Cc1cc(N)c2ccccc2[n+]1CCCCCCCCCC[n+]1c(C)cc(N)c2ccccc21,"ratio change, both ways",[9],inconclusive: 21.3%
same,Potency,[10],"inconclusive: 25.1 µM [inhibitor, partial curve]"
same,Potency,[11],inactive
same,Potency,[12],"inconclusive: 12.6 µM [inhibitor, single point]"
same,Potency,[13],"inconclusive: 32.6 µM [inhibitor, partial curve, poor fit]"
same,Potency,[14],inactive
same,Potency,[15],active: 89.1 µM
CN1CCc2c(c3ccccc3n2Cc2ccc(C(=O)NO)cc2)C1,Potency,[16],"inconclusive: 31.6 µM [cytotoxic, partial curve, poor fit]"
C[C@]12CC[C@@H]3c4ccc(O)cc4CC[C@H]3[C@@H]1CC[C@@H]2OC(=O)CCC1CCCC1,Potency,[17],"inconclusive: 25.1 µM [inhibitor, partial curve, poor fit]"
O=C(C=Cc1ccc(CN(CCO)CCc2c[nH]c3ccccc23)cc1)NO,Potency,[18],"inconclusive: 0.0046 µM [cytotoxic, full curve, poor fit]"
Cc1ccc2nc(N)[nH]c(=O)c2c1Sc1ccncc1,Potency,[19],"inconclusive: 1.69 µM [inhibitor, partial curve, poor fit]"

# Source: PubChem BioAssay (NCATS)
